Some of the results follow.

The target in this assay is T1, OsWOX13 (Oryza sativa, UniProt Q5QMM3 1-267).
T1 sequence: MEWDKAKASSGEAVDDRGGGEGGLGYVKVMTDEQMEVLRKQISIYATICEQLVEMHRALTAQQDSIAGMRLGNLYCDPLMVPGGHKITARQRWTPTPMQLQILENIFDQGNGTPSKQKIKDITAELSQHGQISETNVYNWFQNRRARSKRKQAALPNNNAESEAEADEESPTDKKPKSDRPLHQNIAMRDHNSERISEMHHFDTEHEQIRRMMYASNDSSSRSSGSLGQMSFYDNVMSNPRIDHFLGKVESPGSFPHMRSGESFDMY
Nature of the assay: protein-binding microarray (RPBM); PBS, 2% BSA, 51.3 ng/ul salmon testes DNA, 50 uM zinc acetate, 200 nM TF, 25 C, 1 h; high values mean tight binding. The note with it: protein: recombinant; tags: N-terminal polyhistidine and DsRed monomer fusion (pET32a); label: CyDye5-dUTP incorporated in the synthesized complementary strand; 3' TTTTT single-stranded linker to array surface; dsDNA, one strand shown. Summed up:
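Transcription factors were each fused at the N-terminus to a polyhistidine tag plus DsRed and expressed in E. coli BL21-CodonPlus before Ni–NTA purification. Binding to a double-stranded custom Agilent array was carried out with 200 nM protein at 25 °C for 1 h in PBS, 2% BSA, salmon testes DNA and 50 µM zinc acetate. The binding signal is per-feature fluorescence intensity, in arbitrary units, on an Axon 4000B scanner.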
As for “ATTATTGTAACTAAATTTTGAACATATGATTTCTGCACGGCGGAGTCACCTAGTGCAG”, the binding signal is 8450 fluorescence intensity (a.u.). For the sequence “TCTAGATTTGACTAAATTAAGTAGTTGTTTAACTAGTATACGGAGTCACCTAGTGCAG”, the binding signal was 14000 fluorescence intensity (a.u.). Then “CGCACTAATGGAAATTAAGGAGGTAGCCAAGCCGATCCCACGGAGTCACCTAGTGCAG”, with 22300 fluorescence intensity (a.u.); and “TGGAGGAGAGTAAATGAGCAATCAGGCCCACGGCCCAATCCGGAGTCACCTAGTGCAG”, with 3370 fluorescence intensity (a.u.). “TACTCCAAGGTGCAGGCGTCGCTGGTGCAGAGCCTCGGCGCGGAGTCACCTAGTGCAG”: the binding signal was 7060 fluorescence intensity (a.u.). “AATTAATCATGCAATAAAACAAATTTCGTTTTGCGTGCTACGGAGTCACCTAGTGCAG”: the binding signal was 6310 fluorescence intensity (a.u.). Take “CCATGATTGATCGAAAGTAAACGGAGAGGCCACATGCATGCGGAGTCACCTAGTGCAG”: the binding signal was 50100 fluorescence intensity (a.u.). Then “AACAATTGATTAGTACAAAATGGTACTTCCTCCGTTTCACCGGAGTCACCTAGTGCAG”, with 56600 fluorescence intensity (a.u.); and “GATAGTGGATTGATTGTCCATCCACATTGATGTCGAATCTCGGAGTCACCTAGTGCAG”, with 39300 fluorescence intensity (a.u.). For “TTCCACCATGTTTCAATCATTAGGGAAATCCGTGTACGCTCGGAGTCACCTAGTGCAG”, the binding signal is 7870 fluorescence intensity (a.u.). As to “ACACTCTGATTTGTGCAGAGATGTTTATATCCATGCTGATCGGAGTCACCTAGTGCAG”, the binding signal was 10800 fluorescence intensity (a.u.). With “TTTTAATTTTCTGTACTCTCGTCGGCCAACGCAGCCAGTTCGGAGTCACCTAGTGCAG”, the binding signal is 4450 fluorescence intensity (a.u.). On to “TCTGATCGACGGTCCCGATTGATCCGTACCTGTACAGAAGCGGAGTCACCTAGTGCAG”, for which the binding signal is 4650 fluorescence intensity (a.u.). “ATATGATTAATAAAATAAACTTATTTCGAGATAAATAGGACGGAGTCACCTAGTGCAG”: the binding signal was 30400 fluorescence intensity (a.u.). Then “GGGAGCAATTTAGTCTGTATAATAAAATTATTATTATGAGCGGAGTCACCTAGTGCAG”, with 5930 fluorescence intensity (a.u.); and “TAACGGGCAAGTAATTTAATTATTACCATCTCTCACAGCCCGGAGTCACCTAGTGCAG”, with 10100 fluorescence intensity (a.u.); and “CTATGATTATTAGTCAAAAGCTACCAAGTTTGATTTTCCTCGGAGTCACCTAGTGCAG”, with 30900 fluorescence intensity (a.u.). Then “TTGGCTATTAGATTGATTTAAAGCTAGTAGTGGGCTGTACCGGAGTCACCTAGTGCAG”, with 27800 fluorescence intensity (a.u.); and “GGCGACTCATGAAATTGATTCCATCGCGCTCGTTGATAGGCGGAGTCACCTAGTGCAG”, with 6120 fluorescence intensity (a.u.); and “TTGATGGACATGAATGAATGGAACATGAGAAAGTCGTATTCGGAGTCACCTAGTGCAG”, with 19300 fluorescence intensity (a.u.). In the case of “AATCTTGATTTGTCTACAGATAATCTCTCACACCTTATCTCGGAGTCACCTAGTGCAG”, the binding signal was 17200 fluorescence intensity (a.u.). As for “ATTGACAGCGATAGTCGCACGGGTTCTTGCTTATTTGGATCGGAGTCACCTAGTGCAG”, the binding signal is 12400 fluorescence intensity (a.u.).

“ATATATTGTTAATGATTATAATAGATGACCTGAACTGAGACGGAGTCACCTAGTGCAG”: the binding signal is 19600 fluorescence intensity (a.u.).

On to “GGGTTGATTTTGCTTCCTGCATCCCAGCGACATCGCCCAACGGAGTCACCTAGTGCAG”, for which the binding signal is 3960 fluorescence intensity (a.u.). “CTGGATTGGTGATTGATTATCCGAGCAAGCAAAGACGATGCGGAGTCACCTAGTGCAG”: the binding signal is 63800 fluorescence intensity (a.u.). “CTTAATTAGGCTCAAATAATTCGTCTCGTGGTTTCCAATCCGGAGTCACCTAGTGCAG”: the binding signal is 21700 fluorescence intensity (a.u.). With “TAGCAAATTATATTTCTTTAATTAATAACATGGAAATAGACGGAGTCACCTAGTGCAG”, the binding signal is 13300 fluorescence intensity (a.u.).

Turning to “CTATGCATTTAATTAATTAGGAGAAAACTCCATATTACACCGGAGTCACCTAGTGCAG”, the binding signal is 23300 fluorescence intensity (a.u.). Then “TGTCAATCAACGAAAGCTCAAGGCGGTTTCTTCTCCGGTGCGGAGTCACCTAGTGCAG”, with 33000 fluorescence intensity (a.u.); and “TCTTTTAATTTTGAAAATTAAGCGTTTCAGATGGTTGAGACGGAGTCACCTAGTGCAG”, with 6920 fluorescence intensity (a.u.). On to “ATATACATTTAATTCTATTTGATTTTCTGTTTCACATCTTCGGAGTCACCTAGTGCAG”, for which the binding signal was 7400 fluorescence intensity (a.u.).

With “CTCGTCCAAATTTGATTTTGCAAACTATAGGGTAGATGATCGGAGTCACCTAGTGCAG”, the binding signal is 8770 fluorescence intensity (a.u.).

For “GAGGCACTGATTGTAGACAGGTGAAAGTTAAAAGCGAGAGCGGAGTCACCTAGTGCAG”, the binding signal is 9400 fluorescence intensity (a.u.). With “GGGTAATTTCTGGGATAGGTTTATCAGAATTGCAAAATTGCGGAGTCACCTAGTGCAG”, the binding signal was 7430 fluorescence intensity (a.u.).

Regarding “ATGATTTATTATGTTCTGCCCTTCTTTGTTGTGACAAAGTCGGAGTCACCTAGTGCAG”, the binding signal is 4960 fluorescence intensity (a.u.).

As for “TTGACTGGGTGACAATAGACGGGCAAATCGTTGGTGCCTGCGGAGTCACCTAGTGCAG”, the binding signal is 9780 fluorescence intensity (a.u.). In the case of “TTATTGTGCATTTAATTGGTTAACTACAACAGTGTGCCGACGGAGTCACCTAGTGCAG”, the binding signal is 11200 fluorescence intensity (a.u.). Regarding “ACACAAACAGACTGGAAATTAGAGACTATTAAGTGTGGCGCGGAGTCACCTAGTGCAG”, the binding signal was 29100 fluorescence intensity (a.u.). In the case of “ACTAGATAGTAATTGTATAGTATATTTTATTGGTAACTATCGGAGTCACCTAGTGCAG”, the binding signal is 8420 fluorescence intensity (a.u.). Then “TCCTACTAATTTGGAAAAGGAAAATTGGAATCCGTCTCATCGGAGTCACCTAGTGCAG”, with 12800 fluorescence intensity (a.u.); and “TGAATCAAATGATAGGAAAATAATTAATAATTCCTTAAATCGGAGTCACCTAGTGCAG”, with 5570 fluorescence intensity (a.u.); and “TTGTCATCAAATTTTGATCAAACTATTTATTGATCTTTTACGGAGTCACCTAGTGCAG”, with 3570 fluorescence intensity (a.u.).

The values are drawn from publication PMC7819943, “Rice protein-binding microarrays: a tool to detect cis-acting elements near promoter regions in rice”.
